Structures can show the parent of a compound that is named as a salt. ± gives the standard deviation of the averaged measurements. Over roughly 3,200 compounds, “nuclei count (viability) relative to DMSO” has its median near 99; the lowest 2% begin near 16. The list shows a part of the results.
What follows are compounds tested on U2OS (assay: nuclei count (viability) relative to DMSO (% of DMSO); higher = more viable cells). Conditions: 10 µM; 24 h.
Procedure: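 Primary image-based screen in U2OS cells: compounds at 10 uM for 24 h, then a 1 h o-propargyl-puromycin (OPP) pulse, click labelling, and high-throughput microscopy. Mean cytoplasmic OPP intensity and nuclei count were normalised to DMSO wells within each plate (DMSO = 100) and averaged over triplicate plates.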
For COc1ccc(-c2oc3c(CC=C(C)C)c(O[C@@H]4O[C@H](CO)[C@@H](O)[C@H](O)[C@H]4O)cc(O)c3c(=O)c2O[C@@H]2O[C@@H](C)[C@H](O)[C@@H](O)[C@H]2O)cc1 [Icariin], the nuclei count was 107. Cc1cc(C)cc(C(=O)N(C)[C@H](Cc2ccc(-c3ccccc3)cc2)C(=O)N[C@@H](Cc2c[nH]c3ccccc23)C(=O)O)c1 was tested, and the nuclei count was 86.9. In the case of C[C@H]1[C@@H](O)O[C@@H]2O[C@@]3(C)CC[C@H]4[C@H](C)CC[C@@H]1[C@@]24OO3 [Dihydroartemisinin (DHA)], the nuclei count is reported as 69.8. With CCn1cc(C(=O)O)c(=O)c2ccc(C)nc21 [Nalidixic acid (NegGram)] the nuclei count was 87.3. With CCn1cc(C(=O)O)c(=O)c2ccc(C)nc21 [Nalidixic acid sodium salt] the nuclei count was 95.7. C#CCN(C)Cc1ccccc1 [Pargyline hydrochloride] gave a nuclei count of 95. Compound Cc1nc2c(c(=O)[nH]1)CSCC2 has a nuclei count of 110. Compound CCCCCCCC/C=C\CCCCCCCC(=O)N[C@@H](CO)Cc1ccc(O)cc1 has a nuclei count of 94.6. In the case of CCN(CC)CCNC(=O)c1cc(S(C)(=O)=O)ccc1OC [Tiapride hydrochloride], the nuclei count is reported as 101. O=C(CCCN1CC=C(n2c(=O)[nH]c3ccccc32)CC1)c1ccc(F)cc1 [Droperidol] showed a nuclei count of 107. For CC(C)N1CCN(c2ccc(OCC3COC(Cn4cncn4)(c4ccc(Cl)cc4Cl)O3)cc2)CC1 (stereo not given) [Terconazole], the nuclei count was 99.7. CN1C2CCCC1CC(NC(=O)c1nn(C)c3ccccc13)C2 (stereo not given) [Granisetron HCl] was tested, and the nuclei count was 104. Work on CN1C2CCCC1CC(NC(=O)c1nn(C)c3ccccc13)C2 (stereo not given) [Granisetron] yielded a nuclei count of 114. In the case of CCN(CC)CC#CCOC(=O)C(O)(c1ccccc1)C1CCCCC1 (stereo not given) [Oxybutynin chloride], the nuclei count is reported as 106. Compound Cc1ncc([N+](=O)[O-])n1CCO [Metronidazole] has a nuclei count of 86.1. Work on OC(CCN1CCCCC1)(c1ccccc1)C1CC2C=CC1C2 (stereo not given) [Biperiden HCl] yielded a nuclei count of 95.1. Compound OC(CCN1CCCCC1)(c1ccccc1)C1CC2C=CC1C2 (stereo not given) [Biperiden hydrochloride] has a nuclei count of 101. O=C(NCCNCC(O)COc1ccc(O)cc1)N1CCOCC1 (stereo not given) [Xamoterol hemifumarate] showed a nuclei count of 106 ± 2.1. For CCN(Cc1ccncc1)C(=O)C(CO)c1ccccc1 (stereo not given) [Tropicamide], the nuclei count was 103.5 ± 0.076. CN(C)CCOC1=Cc2ccccc2Sc2ccc(Cl)cc21 [Zotepine] gave a nuclei count of 104. In the case of Cc1c(C(=O)N(C)C2CCCCC2)sc2nc3ccc(N)cc3n12, the nuclei count is reported as 99.2. COc1ccc(C(=O)NCc2cccnc2)cc1C(=O)NCc1cccnc1 [Picotamide monohydrate] showed a nuclei count of 100. Cc1cc([N+](=O)[O-])ccc1NS(=O)(=O)c1cc(Cl)ccc1Cl gave a nuclei count of 108. For COc1ccc(COc2ccc(Cc3cnc(N)nc3N)cc2OC)cc1, the nuclei count was 96.5. For NC[C@H]1O[C@H](O[C@H]2[C@H](O[C@@H]3O[C@H](CO)[C@@H](O)[C@H]3O)[C@@H](O)[C@H](N)C[C@@H]2N)[C@H](N)[C@@H](O)[C@@H]1O [Ribostamycin sulfate salt], the nuclei count was 99.9. In the case of Cc1ccc(C(=O)c2cc(O)c(O)c([N+](=O)[O-])c2)cc1 [Tolcapone], the nuclei count is reported as 106. O=Nc1c(-c2c(O)[nH]c3ccccc23)[nH]c2ccccc12 [Indirubin-3'-oxime] was tested, and the nuclei count was 71.8. COc1ccc2[nH]cc(CCNC(C)=O)c2c1 [Melatonin] showed a nuclei count of 102 ± 2.4. With C=CC[C@@H]1/C=C(\C)C[C@H](C)C[C@H](OC)[C@H]2O[C@@](O)(C(=O)C(=O)N3CCCC[C@H]3C(=O)O[C@H](/C(C)=C/[C@@H]3CC[C@@H](O)[C@H](OC)C3)[C@H](C)[C@@H](O)CC1=O)[C@H](C)C[C@@H]2OC [FK-506 (Tacrolimus)] the nuclei count was 102. OC[C@H]1O[C@@H](Oc2cc(O)cc(/C=C/c3ccc(O)cc3)c2)[C@H](O)[C@@H](O)[C@@H]1O [Polydatin (Piceid)] showed a nuclei count of 97.2. O=c1c(O)c(-c2ccc(O)cc2O)oc2cc(O)cc(O)c12 [Morin hydrate (Aurantica)] showed a nuclei count of 103. CC(/C=C/c1cccc(Oc2ccc(F)cc2)c1)N(O)C(N)=O (stereo not given) was tested, and the nuclei count was 101. In the case of COc1ccc(C2CNC(=O)C2)cc1OC1CCCC1 (stereo not given) [Rolipram], the nuclei count is reported as 102 ± 3. Compound Nc1c(S(=O)(=O)O)cc(Nc2cccc3ccccc23)c2c1C(=O)c1ccccc1C2=O has a nuclei count of 99.5. CCCCN1CCCC1CNC(=O)c1cc(C#N)c2ccccc2c1OC (stereo not given) [Nafadotride] was tested, and the nuclei count was 96.4. CC(=O)Nc1nc(C)c(-c2ccc(Cl)c(S(=O)(=O)NCCO)c2)s1 gave a nuclei count of 90.3. CN(Cc1ccccc1)C(=O)[C@H](Cc1ccc2ccccc2c1)NC(=O)[C@@H]1CCCN1C(=O)Nc1ccccc1[N+](=O)[O-] showed a nuclei count of 100. c1ccc([C@H]2CN3CCSC3=N2)cc1 [Levamisole HCl] was tested, and the nuclei count was 96.5. c1ccc([C@H]2CN3CCSC3=N2)cc1 [Levamisole hydrochloride] was tested, and the nuclei count was 108. CCC(=O)O[C@]1(C(=O)CCl)[C@@H](C)C[C@H]2[C@@H]3CCC4=CC(=O)C=C[C@]4(C)[C@@]3(F)[C@@H](O)C[C@@]21C [Clobetasol propionate] showed a nuclei count of 96.6 ± 8. O=C1C[C@@H](c2ccc(O)cc2)Oc2cc(O)cc(O)c21 [Naringenin] gave a nuclei count of 103. Work on Cc1ccc([N+](=O)[O-])cc1S(=O)(=O)N(C)C yielded a nuclei count of 116. With Cc1c(O)c(=O)ccn1C [Deferiprone] the nuclei count was 106. Compound O=S(=O)(O)c1cc(O)ccc1O [Ethamsylate] has a nuclei count of 111. Compound CCCCC(F)(F)[C@@]1(O)CC[C@H]2[C@@H](CC(=O)[C@@H]2CCCCCCC(=O)O)O1 [Lubiprostone (Amitiza)] has a nuclei count of 88.7. For COc1ccc(F)c(F)c1C(=O)c1cnc(NC2CCN(S(C)(=O)=O)CC2)nc1N, the nuclei count was 35.8 ± 0.95. For O=C1OCCN1/N=C/c1ccc([N+](=O)[O-])o1 [Furazolidone], the nuclei count was 76.1. CCOC(=O)[C@H](CCc1ccccc1)N[C@H]1CS[C@H](c2cccs2)CN(CC(=O)O)C1=O [Temocapril HCl] was tested, and the nuclei count was 108. CN(C)c1nc(N(C)C)nc(N(C)C)n1 [Altretamine] was tested, and the nuclei count was 99.3. N[C@H](C(=O)O)[C@H](O)c1ccc(O)c(O)c1 [Droxidopa (L-DOPS)] was tested, and the nuclei count was 99.8. Nc1nc2n[nH]nc2c(=O)[nH]1 [Azaguanine-8] was tested, and the nuclei count was 64.3. For CC(=O)O[C@]1(C(C)=O)CC[C@H]2[C@@H]3C[C@H](C)C4=CC(=O)CC[C@]4(C)[C@H]3CC[C@@]21C [Medroxyprogesterone acetate], the nuclei count was 118. For CC(C)NCC(O)c1ccc2ccccc2c1 (stereo not given) [Pronethalol hydrochloride], the nuclei count was 97.9 ± 0.23. CCCc1c(OCC(O)COc2ccc3c(=O)cc(C(=O)O)oc3c2CCC)ccc(C(C)=O)c1O (stereo not given) gave a nuclei count of 107. In the case of COc1cc2c(Oc3ccc4[nH]c(C)cc4c3F)ncnc2cc1OCCCN1CCCC1 [Cediranib (AZD2171)], the nuclei count is reported as 82.2. CNc1cc(OC)c(C(=O)NC2CCN(Cc3ccccc3)C2C)cc1Cl (stereo not given) [Nemonapride] gave a nuclei count of 95.4. Work on CCn1cc(-c2cccc(C(F)(F)F)c2)c2sc(C(=N)NC3CCS(=O)(=O)CC3)cc2c1=O yielded a nuclei count of 91.5. C[C@H]1C[C@@H]2[C@H]([C@@H](O)C[C@@]3(C)[C@H]2CC[C@]3(O)C(=O)CO)[C@@]2(C)C=CC(=O)C=C12 [Methylprednisolone, 6-alpha] showed a nuclei count of 104. In the case of C[C@H]1C[C@@H]2[C@H]([C@@H](O)C[C@@]3(C)[C@H]2CC[C@]3(O)C(=O)CO)[C@@]2(C)C=CC(=O)C=C12 [Methylprednisolone], the nuclei count is reported as 116. Work on O=[N+]([O-])c1cccc2cn[nH]c12 [7-Nitroindazole] yielded a nuclei count of 100. Compound COc1ccccc1OCC(O)CN1CCN(CC(=O)Nc2c(C)cccc2C)CC1 (stereo not given) [Ranolazine] has a nuclei count of 107. In the case of COc1cc([C@@H]2c3cc4c(cc3[C@@H](O[C@@H]3O[C@@H]5CO[C@@H](C)O[C@H]5[C@H](O)[C@H]3O)[C@H]3COC(=O)[C@H]23)OCO4)cc(OC)c1O [Etoposide (VP-16)], the nuclei count is reported as 50.9. Work on COc1cc([C@@H]2c3cc4c(cc3[C@@H](O[C@@H]3O[C@@H]5CO[C@@H](C)O[C@H]5[C@H](O)[C@H]3O)[C@H]3COC(=O)[C@H]23)OCO4)cc(OC)c1O [Etoposide] yielded a nuclei count of 44.3 ± 2. Work on CCCNCC(O)COc1ccccc1C(=O)CCc1ccccc1 (stereo not given) [Propafenone hydrochloride] yielded a nuclei count of 91.7. Compound CCCNCC(O)COc1ccccc1C(=O)CCc1ccccc1 (stereo not given) [Propafenone] has a nuclei count of 90.7. In the case of NC(=O)C(c1ccccc1)(c1ccccc1)[C@@H]1CCN(CCc2ccc3c(c2)CCO3)C1 [Darifenacin hydrobromide], the nuclei count is reported as 98.1. With O=C1c2ccc(Nc3ccc(F)cc3F)cc2CCc2ccc(OC[C@H](O)CO)cc21 [Skepinone-L] the nuclei count was 80. O=S(=O)(O)NC1CCCCC1 [Cyclamic  acid] gave a nuclei count of 88.8. In the case of CC(C)NC[C@@H](O)COc1cccc2ccccc12 [(R)-Propranolol hydrochloride], the nuclei count is reported as 105. CC(C)NC[C@@H](O)COc1cccc2ccccc12 [(R)-(+)-Propranolol hydrochloride] gave a nuclei count of 89.9. In the case of O=C(NCCO)c1cccc(-c2cc(Nc3ccc(OC(F)(F)F)cc3)ncn2)c1, the nuclei count is reported as 99.7. Work on COCC[n+]1c2c(n(Cc3cnccn3)c1C)C(=O)c1ccccc1C2=O yielded a nuclei count of 14.1. Work on CCN(CC)CCc1nc(-c2ccccc2)no1 [Oxalamine citrate salt] yielded a nuclei count of 101. Work on CNCC(O)c1ccc(OC(=O)C(C)(C)C)c(OC(=O)C(C)(C)C)c1 (stereo not given) [Dipivefrin hydrochloride] yielded a nuclei count of 105. For CC(C)NCC(O)c1ccc(O)c(O)c1 (single isomer, unassigned; (+)) [(+)-Isoproterenol (+)-bitartrate salt], the nuclei count was 88.6.

Reference: the supplement of paper PMC8183993
